Laboratory results as given in article PMC6212790.
This is one part of the list. At the low end of the ranking, values are background and their order means little.

These sequences were tested against T1, GST-Rok-C97-191 (UniProt O34857) (assay: protein binding microarray). Settings: Rok is a gene silencer of Bacillus subtilis; high values mean tight binding; most listed sequences are background and not binding sites; double strand, one strand shown.
T1 sequence: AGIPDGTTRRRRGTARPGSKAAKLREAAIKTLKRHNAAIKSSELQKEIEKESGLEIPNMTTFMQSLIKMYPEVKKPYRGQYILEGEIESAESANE
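Note: rank score from −0.5 (least bound) to 0.5 (best bound).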

Row | Sequence | binding signal [E-score]
1 | AGAAAAGG | -0.204
2 | GCTGAAGC | -0.221
3 | ACTGCTGG | -0.148
4 | GGTGGACA | -0.307
5 | TGCCCAAA | 0.00809
6 | CACCTAGG | -0.155
7 | GCGTACAC | 0.138
8 | GCTTACCC | -0.0373
9 | ATAGTCAT | -0.0581
10 | GGCCCGAC | -0.259
11 | GACCGTAA | 0.112
12 | CCCGTCGG | -0.173
13 | ACACGTAG | -0.0318
14 | ACATCTTG | -0.0462
15 | CCATTGAA | -0.106
16 | GAAAGCAC | -0.00694
17 | AAATACCT | 0.271
18 | ATCTGACA | -0.026
19 | ATTCCCCG | -0.136
20 | TCGCCTAA | 0.0852
21 | AGTTCCTA | 0.15
22 | GGAGTAAC | -0.109

Row | Sequence | binding signal [E-score]
23 | AAGACATA | 0.00214
24 | CGGAGCAA | 0.0518
25 | AAGCGATC | -0.0616
26 | CGAGTACG | 0.0532
27 | ATCAAAAT | 0.231
28 | CCCCTTGA | -0.25
29 | CTACGTTA | 0.0846
30 | AAGATTCC | -0.0554
31 | ATGCAAAC | -0.0558
32 | CCAAGACG | -0.139
33 | ACAACAGA | -0.109
34 | ATAGTACC | 0.254
35 | GCCTTACA | -0.0752
36 | CGTTTAGA | -0.129
37 | AATGAGCC | -0.0629
38 | CCTCTACA | 0.104
39 | ACTATACT | 0.0926
40 | CACGAGTA | -0.0408
41 | CTGAGCTC | -0.225
42 | GAATTCTA | 0.363
43 | GTGATGGA | -0.179
44 | AACTACAC | 0.33

Row | Sequence | binding signal [E-score]
45 | ACGTCTAA | -0.00625
46 | GCACCAAC | -0.132
47 | CACCTGGG | -0.262
48 | GCGAGGTA | 0.108
49 | CGCGGTGA | -0.228
50 | CCCGGTTC | -0.31
51 | AACTTAGC | 0.193
52 | ACTTGCTC | -0.054
53 | CCCGACAC | -0.163
54 | TCAACCCA | -0.185
55 | CATCTCTA | 0.0692
56 | GTTCGTCA | 0.0262
57 | CCATTTAC | 0.0206
58 | ACAATCCC | 0.162
59 | AGAACAAC | -0.114
60 | CAGCCATC | -0.13
61 | GTTTTTAA | 0.0501
62 | ACATTGCT | 0.138
63 | ATGCCCTC | -0.36
64 | AATCGCCT | -0.178
65 | AAATGGAC | -0.102
66 | GGCGTGGA | -0.266

Row | Sequence | binding signal [E-score]
67 | AGCAATTG | 0.332
68 | GCACCCAA | -0.0642
69 | ATGTCACC | 0.17
70 | ACGAAGGG | -0.239
71 | AGCATGTG | -0.0216
72 | TACCTCCA | 0.129
73 | GTAGCTCA | -0.00637
74 | GTTGCTCA | 0.0269
75 | GAGCCTCA | -0.242
76 | CATTGCGA | 0.108
77 | CTGCAATC | -0.107
78 | CACACCGG | -0.289
79 | AACCCAAA | -0.0379
80 | CATCCGAC | -0.175
81 | AACCAGCG | -0.0612
82 | AACCCGCG | -0.0978
83 | GGTATTAA | 0.189
84 | CGTAGAAG | 0.0648
85 | AGATATGC | 0.207
86 | ACGTTCTA | 0.317
87 | CAGGTGGC | -0.127
88 | CCTCCCGC | -0.143

Row | Sequence | binding signal [E-score]
89 | GCACATGC | -0.0509
90 | GGACTACA | 0.0796
91 | CCTTCGGC | -0.2
92 | GTAGGACA | 0.0745
93 | ACGTGTCT | 0.00783
94 | TGAGCTCA | -0.21
95 | CTGGATAA | -0.00344
96 | AAGGCCCT | -0.355
97 | ATGACTCA | -0.107
98 | GTGACTGA | -0.135
99 | ACTTAGCC | -0.029
100 | AGGTTAAC | 0.0732
101 | CACTTAAA | -0.0399
102 | ACGCACAC | -0.0939
103 | CAAGCCGA | -0.061
104 | AGCTGCGG | -0.136
105 | GAATTTAA | 0.124
106 | ATGAGAAA | 0.117
107 | GTTGGTCA | -0.0582
108 | CAATGGTA | 0.269
109 | ACAATATG | 0.146
110 | ATGCGTGG | -0.181
